{"source": "the supplement of paper PMC4604168 (melanoma cell lines)", "note": "Some of the results follow. Many values rest on one well or one pass, so single values are uncertain.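 Also: cell number obtained by counting DAPI-stained nuclei in high-throughput microscope images with image analysis software, screen run in 1,536-well plates.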", "data": [{"tested_on": "LOXIMVI", "assay": "cell count relative to DMSO control; melanoma cells; higher = more viable cells", "conditions": "library dose: low library concentration; 72 h", "units": {"cell count": "%"}, "values": [{"smiles": "O=S(=O)(c1ccccc1)N(CC(F)(F)F)c1ccc(C(O)(C(F)(F)F)C(F)(F)F)cc1", "note": "+ CC(C)CCN1c2nc(Nc3cc(F)c(O)c(F)c3)ncc2N(C)C(=O)C1C [BID1870] (first compound 1.4 µM, partner dose 0.2 µM)", "cell count": 91.5}, {"smiles": "N#Cc1c(O)c2c(-c3ccc(-c4ccccc4O)cc3)csc2[nH]c1=O", "note": "+ Oc1nc(-c2ccc(C(F)(F)F)cc2)nc2c1CSCC2 [XAV939] (first compound 2 µM, partner dose 2 µM)", "cell count": 223}, {"smiles": "N#Cc1c(O)c2c(-c3ccc(-c4ccccc4O)cc3)csc2[nH]c1=O", "note": "+ CCN(CC)CCCCNc1ncc2cc(-c3cc(OC)cc(OC)c3)c(NC(=O)NC(C)(C)C)nc2n1 [PD173074] (first compound 2 µM, partner dose 0.1 µM)", "cell count": 104}, {"smiles": "COc1ccc2c(c1)CCC1C2CCC2(C)C(NCCCCCCN3C(=O)C=CC3=O)CCC12", "note": "(centres undefined) + O=C1NC(=O)/C(=C/c2ccc(-c3ccc(F)cc3O)o2)S1 [AS252424] (first compound 0.4 µM, partner dose 1 µM)", "cell count": 84.4}, {"smiles": "COc1ccc(COc2ccc(Cc3cnc(N)nc3N)cc2OC)cc1", "note": "+ Cn1cc(/C=C2\\C(=O)Nc3cccnc32)c2ccccc21 [GW441756] (first compound 1 µM, partner dose 0.4 µM)", "cell count": 120}, {"smiles": "Oc1cc(-c2nc(-c3ccccc3)[nH]c2-c2ccncc2)ccc1Cl", "note": "+ CCCCCCCCCCCC1=C(O)C(=O)C=C(O)C1=O [Embelin] (first compound 0.2 µM, partner dose 1.2 µM)", "cell count": 103}, {"smiles": "O=C(O)C(=O)Nc1sc2c(c1C(=O)O)CCNC2", "note": "+ Cn1cc(/C=C2\\C(=O)Nc3cccnc32)c2ccccc21 [GW441756] (first compound 1.66667 µM, partner dose 0.4 µM)", "cell count": 125}, {"smiles": "O=C(O)C(=O)Nc1sc2c(c1C(=O)O)CCNC2", "note": "+ CCCCCCCCCCCC1=C(O)C(=O)C=C(O)C1=O [Embelin] (first compound 1.66667 µM, partner dose 1.2 µM)", "cell count": 124}, {"smiles": "COc1ccc2c(c1)CCC1C2CCC2(C)C(NCCCCCCN3C(=O)C=CC3=O)CCC12", "note": "(centres undefined) + CCN(CC)CCCCNc1ncc2cc(-c3cc(OC)cc(OC)c3)c(NC(=O)NC(C)(C)C)nc2n1 [PD173074] (first compound 0.4 µM, partner dose 0.1 µM)", "cell count": 65.6}, {"smiles": "COC(=O)c1sccc1S(=O)(=O)Nc1ccc(Nc2ccccc2)cc1OC", "note": "+ COc1cc2ncnc(Nc3ccc(Oc4ccccc4)cc3)c2cc1OC [SrcI1] (first compound 1 µM, partner dose 2 µM)", "cell count": 127}, {"smiles": "CCN(CC)CCCCNc1ncc2cc(-c3cc(OC)cc(OC)c3)c(NC(=O)NC(C)(C)C)nc2n1", "note": "+ COc1ccc(COc2ccc(Cc3cnc(N)nc3N)cc2OC)cc1 [GW2580] (first compound 0.1 µM, partner dose 1 µM)", "cell count": 101}, {"smiles": "COc1cc(N2CCC(N3CCN(C)CC3)CC2)ccc1Nc1ncc(Cl)c(Nc2ccccc2S(=O)(=O)C(C)C)n1", "note": "+ CC(C)CCN1c2nc(Nc3cc(F)c(O)c(F)c3)ncc2N(C)C(=O)C1C [BID1870] (first compound 0.08 µM, partner dose 0.2 µM)", "cell count": 82}, {"smiles": "c1cc(-c2cnn3cc(-c4ccc(OCCN5CCCCC5)cc4)cnc23)ccn1", "note": "[Dorsomorphin] + Cn1cc(/C=C2\\C(=O)Nc3cccnc32)c2ccccc21 [GW441756] (first compound 0.4 µM, partner dose 0.4 µM)", "cell count": 96.6}, {"smiles": "Cn1cc(/C=C2\\C(=O)Nc3cccnc32)c2ccccc21", "note": "+ CCCCCCCCCCCC1=C(O)C(=O)C=C(O)C1=O [Embelin] (first compound 0.4 µM, partner dose 1.2 µM)", "cell count": 92.4}, {"smiles": "Oc1nc(-c2ccc(C(F)(F)F)cc2)nc2c1CSCC2", "note": "+ Cn1cc(/C=C2\\C(=O)Nc3cccnc32)c2ccccc21 [GW441756] (first compound 2 µM, partner dose 0.4 µM)", "cell count": 66.3}, {"smiles": "COc1ccc(-c2ccc3c(N4CCOCC4)nc(N4C[C@@H](C)O[C@@H](C)C4)nc3n2)cc1CO", "note": "+ Cc1cc([N+](=O)[O-])ccc1NS(=O)(=O)c1cc(Cl)ccc1Cl [FH535] (first compound 0.02 µM, partner dose 1 µM)", "cell count": 84.8}, {"smiles": "COc1cc(N2CCC(N3CCN(C)CC3)CC2)ccc1Nc1ncc(Cl)c(Nc2ccccc2S(=O)(=O)C(C)C)n1", "note": "+ Cn1cc(/C=C2\\C(=O)Nc3cccnc32)c2ccccc21 [GW441756] (first compound 0.08 µM, partner dose 0.4 µM)", "cell count": 91.1}, {"smiles": "CCN(CC)CCCCNc1ncc2cc(-c3cc(OC)cc(OC)c3)c(NC(=O)NC(C)(C)C)nc2n1", "note": "+ Cn1cc(/C=C2\\C(=O)Nc3cccnc32)c2ccccc21 [GW441756] (first compound 0.1 µM, partner dose 0.4 µM)", "cell count": 93.2}, {"smiles": "N#Cc1c(O)c2c(-c3ccc(-c4ccccc4O)cc3)csc2[nH]c1=O", "note": "+ O=c1cc(-c2cccc3c2Sc2ccccc2S3)oc(N2CCOCC2)c1 [KU55933] (first compound 2 µM, partner dose 1 µM)", "cell count": 130}, {"smiles": "COc1ccc(COc2ccc(Cc3cnc(N)nc3N)cc2OC)cc1", "note": "+ CC(C)CCN1c2nc(Nc3cc(F)c(O)c(F)c3)ncc2N(C)C(=O)C1C [BID1870] (first compound 1 µM, partner dose 0.2 µM)", "cell count": 114}, {"smiles": "COc1cc2ncnc(Nc3ccc(Oc4ccccc4)cc3)c2cc1OC", "note": "+ c1cc(-c2cnn3cc(-c4ccc(OCCN5CCCCC5)cc4)cnc23)ccn1 [Dorsomorphin] (first compound 2 µM, partner dose 0.4 µM)", "cell count": 117}, {"smiles": "O=C(O)C(=O)Nc1sc2c(c1C(=O)O)CCNC2", "note": "+ c1cc(-c2cnn3cc(-c4ccc(OCCN5CCCCC5)cc4)cnc23)ccn1 [Dorsomorphin] (first compound 1.66667 µM, partner dose 0.4 µM)", "cell count": 100}, {"smiles": "COC(=O)c1sccc1S(=O)(=O)Nc1ccc(Nc2ccccc2)cc1OC", "note": "+ Oc1nc(-c2ccc(C(F)(F)F)cc2)nc2c1CSCC2 [XAV939] (first compound 1 µM, partner dose 2 µM)", "cell count": 129}, {"smiles": "O=C1NC(=O)/C(=C/c2ccc(-c3ccc(F)cc3O)o2)S1", "note": "+ COc1cc(N2CCC(N3CCN(C)CC3)CC2)ccc1Nc1ncc(Cl)c(Nc2ccccc2S(=O)(=O)C(C)C)n1 [NVP-TAE684] (first compound 1 µM, partner dose 0.08 µM)", "cell count": 85.4}, {"smiles": "O=S(=O)(c1ccccc1)N(CC(F)(F)F)c1ccc(C(O)(C(F)(F)F)C(F)(F)F)cc1", "note": "+ CCCCCCCCCCCC1=C(O)C(=O)C=C(O)C1=O [Embelin] (first compound 1.4 µM, partner dose 1.2 µM)", "cell count": 94.5}, {"smiles": "O=C(O)C(=O)Nc1sc2c(c1C(=O)O)CCNC2", "note": "+ O=C1NC(=O)/C(=C/c2ccc(-c3ccc(F)cc3O)o2)S1 [AS252424] (first compound 1.66667 µM, partner dose 1 µM)", "cell count": 148}, {"smiles": "Cc1cc([N+](=O)[O-])ccc1NS(=O)(=O)c1cc(Cl)ccc1Cl", "note": "+ CC(C)CCN1c2nc(Nc3cc(F)c(O)c(F)c3)ncc2N(C)C(=O)C1C [BID1870] (first compound 1 µM, partner dose 0.2 µM)", "cell count": 96.2}, {"smiles": "COc1ccc2c(c1)CCC1C2CCC2(C)C(NCCCCCCN3C(=O)C=CC3=O)CCC12", "note": "(centres undefined) + O=S(=O)(c1ccccc1)N(CC(F)(F)F)c1ccc(C(O)(C(F)(F)F)C(F)(F)F)cc1 [T0901317] (first compound 0.4 µM, partner dose 1.4 µM)", "cell count": 84.5}, {"smiles": "Oc1nc(-c2ccc(C(F)(F)F)cc2)nc2c1CSCC2", "note": "+ CC(C)CCN1c2nc(Nc3cc(F)c(O)c(F)c3)ncc2N(C)C(=O)C1C [BID1870] (first compound 2 µM, partner dose 0.2 µM)", "cell count": 93.8}, {"smiles": "COc1cc(N2CCC(N3CCN(C)CC3)CC2)ccc1Nc1ncc(Cl)c(Nc2ccccc2S(=O)(=O)C(C)C)n1", "note": "+ O=c1cc(-c2cccc3c2Sc2ccccc2S3)oc(N2CCOCC2)c1 [KU55933] (first compound 0.08 µM, partner dose 1 µM)", "cell count": 121}, {"smiles": "N#Cc1c(O)c2c(-c3ccc(-c4ccccc4O)cc3)csc2[nH]c1=O", "note": "+ CCCCCCCCCCCC1=C(O)C(=O)C=C(O)C1=O [Embelin] (first compound 2 µM, partner dose 1.2 µM)", "cell count": 135}, {"smiles": "c1cc(-c2cnn3cc(-c4ccc(OCCN5CCCCC5)cc4)cnc23)ccn1", "note": "[Dorsomorphin] + O=c1cc(-c2cccc3c2Sc2ccccc2S3)oc(N2CCOCC2)c1 [KU55933] (first compound 0.4 µM, partner dose 1 µM)", "cell count": 187}, {"smiles": "COc1ccc(-c2ccc3c(N4CCOCC4)nc(N4C[C@@H](C)O[C@@H](C)C4)nc3n2)cc1CO", "note": "+ CCN(CC)CCCCNc1ncc2cc(-c3cc(OC)cc(OC)c3)c(NC(=O)NC(C)(C)C)nc2n1 [PD173074] (first compound 0.02 µM, partner dose 0.1 µM)", "cell count": 144}, {"smiles": "N#Cc1c(O)c2c(-c3ccc(-c4ccccc4O)cc3)csc2[nH]c1=O", "note": "+ COc1ccc2c(c1)CCC1C2CCC2(C)C(NCCCCCCN3C(=O)C=CC3=O)CCC12 [U73122] (first compound 2 µM, partner dose 0.4 µM)", "cell count": 139}]}]}
